Assay results published in article PMC4336329 (PLoS ONE, 2015).
Hit rate of the full screen: of about 310,000 compounds, about 14,000 (4.5%) showed an effect of 50% or more. The effect is printed as a negative number. The list shows a part of the results.

Target: human ether-à-go-go-related gene (hERG) potassium channel (human, UniProt Q12809)
Experiment: primary screen, population patch clamp on CHO cells stably expressing hERG
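Note: peak tail current of the secondary pulse compared with the same well before compound.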

Chain of human ether-à-go-go-related gene (hERG) potassium channel (Q12809 whole entry, looked up): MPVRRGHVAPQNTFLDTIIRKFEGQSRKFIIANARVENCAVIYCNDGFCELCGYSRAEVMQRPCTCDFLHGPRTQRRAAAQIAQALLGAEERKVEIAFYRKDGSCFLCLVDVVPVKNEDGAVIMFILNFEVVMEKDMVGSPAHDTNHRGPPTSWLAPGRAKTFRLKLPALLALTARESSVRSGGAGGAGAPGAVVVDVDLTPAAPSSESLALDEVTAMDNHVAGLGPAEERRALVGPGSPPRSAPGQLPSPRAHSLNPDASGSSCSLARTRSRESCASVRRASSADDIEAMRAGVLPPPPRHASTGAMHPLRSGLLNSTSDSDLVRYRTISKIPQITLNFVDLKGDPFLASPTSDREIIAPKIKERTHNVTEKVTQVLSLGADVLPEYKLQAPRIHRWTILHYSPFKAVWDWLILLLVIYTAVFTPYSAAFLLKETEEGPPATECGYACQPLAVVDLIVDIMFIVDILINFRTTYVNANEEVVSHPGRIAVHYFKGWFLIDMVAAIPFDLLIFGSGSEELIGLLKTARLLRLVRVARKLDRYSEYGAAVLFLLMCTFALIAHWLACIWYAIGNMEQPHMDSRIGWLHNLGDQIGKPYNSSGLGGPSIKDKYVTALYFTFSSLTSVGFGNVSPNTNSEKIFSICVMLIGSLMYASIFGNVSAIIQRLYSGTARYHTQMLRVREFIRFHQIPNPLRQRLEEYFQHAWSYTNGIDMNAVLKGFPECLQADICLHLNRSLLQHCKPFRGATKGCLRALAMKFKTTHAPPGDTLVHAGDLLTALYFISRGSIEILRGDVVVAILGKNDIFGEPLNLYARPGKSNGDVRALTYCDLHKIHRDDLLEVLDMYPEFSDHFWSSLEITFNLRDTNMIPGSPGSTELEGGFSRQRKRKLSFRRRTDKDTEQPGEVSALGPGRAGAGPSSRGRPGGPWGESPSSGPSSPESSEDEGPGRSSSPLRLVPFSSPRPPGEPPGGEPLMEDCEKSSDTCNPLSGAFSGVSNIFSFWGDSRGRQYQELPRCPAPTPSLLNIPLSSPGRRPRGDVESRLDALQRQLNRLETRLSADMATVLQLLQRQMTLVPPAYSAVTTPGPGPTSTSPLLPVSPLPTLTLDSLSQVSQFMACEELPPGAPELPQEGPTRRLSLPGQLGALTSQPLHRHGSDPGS

Compound	hERG current change (%, negative = inhibition) at 10uM [%]
CN(CCC1CCCCO1)Cc1cn(C)nc1-c1ccc2c(c1)OCCO2 (centres unmarked)	-6.42
Cc1cccc(OCC(=O)Nc2ccc3nc(C)sc3c2)c1	20.6
CCn1c(NC(=S)Nc2ccccc2)nc2ccccc21	18.4
CC(C)(C)NC(=O)C(c1ccco1)N(Cc1ccc2c(c1)OCO2)C(=O)c1snc(C(N)=O)c1N (centres unmarked)	-7.21
CCOc1ccc(C(c2c(C)[nH][nH]c2=O)c2c(C)[nH][nH]c2=O)cc1OCC	5.77
CC(Oc1ccccc1)C(=O)NNC(=O)c1ccccn1 (centres unmarked)	-6.14
COc1ccc(C(=O)c2ccccc2)cc1	1.12
CCOc1ccc(NC(=S)N2CCC(c3nc4ccccc4[nH]3)CC2)cc1	-0.503
Cc1cc(C)c(N=Cc2c(O)n(-c3nccs3)c(=O)c3ccccc23)c(C)c1	-23
O=C(CC1C(=O)NCCN1Cc1cccc(F)c1F)NCCCC1CCCC1 (centres unmarked)	-17.1
Cc1cc(C)c(C)c(OCCOCCNCc2ccccc2)c1.O=C(O)C(=O)O	-54.2
CCCc1ccc(S(=O)(=O)NCC2CCCN2CC)cc1 (centres unmarked)	-39.1
O=C(Nc1ccc2c(c1)OCO2)c1ccc[n+]([O-])c1	29
Cc1ccc(S(=O)(=O)N2[C@@H](c3ccc(F)cc3)C(C(=O)O)=CC[C@H]2c2ccc3c(c2)OCO3)cc1	9.34
CN(C)C(=S)NC(=O)C12CC3CC(C)(CC(C)(C3)C1)C2	10
O=C(O)c1c(NC(=O)N(CCO)Cc2ccccc2)sc2c1CCCC2	20.7
CC(=O)c1ccc(N2CCN(C(=O)CCc3ccccc3)CC2)cc1	-54.1
CCOC(=O)C1CCCN(S(=O)(=O)c2ccc(Br)s2)C1 (centres unmarked)	-13.1
OCc1nc2ccccc2n1Cc1c(F)cccc1Cl	-5.9
COC(=O)c1ccc(COc2cc(O)c3c(c2)OC(C)(C)CC3=O)cc1	6.38
COc1cccc2cc(C(=O)N3CCN(c4ccccn4)CC3)c(=O)oc12	2.71
Cn1nc(NC(=O)C(C)(C)C)c2c(F)cccc21	-0.47

Compound	hERG current change (%, negative = inhibition) at 10uM [%]
Cc1ccc(NC(=O)c2ccccc2NC(=O)CCC(=O)O)cc1	-6.01
Cc1ccc(NC(=O)c2cccc3ccccc23)cc1	13.3
CCS(=O)(=O)N1CCC(C(=O)N2CCC3(CC2)OCCO3)CC1	6.65
Cc1cc(C)n(-c2nc(NCC(C)O)c3c4c(sc3n2)COC(C)(C)C4)n1 (centres unmarked)	6.03
O=c1c2ccccc2nnn1CSc1ccc2c(c1)OCCO2	-7.04
CC(=O)Oc1c(I)cc(I)cc1C(=O)Nc1ccc(Cl)cc1	19.9
Cc1ccc(NC(=O)c2ccc(F)cc2F)cc1	12.2
O=C(COC(=O)c1cccnc1Cl)NCCC1=CCCCC1	25.9
CC(=C/C(=O)O)/C=C/c1cccs1	12.1
O=C(O)c1ccccc1-c1ccc(/C=c2\sc3nc4cc(Br)cnc4n3c2=O)o1	7.47
CCOc1ccccc1OCCOCCOc1ccccc1[N+](=O)[O-]	-20.5
O=Cc1ccc(-n2cncn2)cc1	29.1
O=C(COc1ccc(C(=O)c2ccccc2)cc1)NCC(=O)Nc1ccccc1Br	-22.2
c1ccc(CC(NCc2ccco2)c2ccccc2)cc1 (centres unmarked)	-9.13
COc1ccc(-c2noc(C(=O)NCc3ccccc3Cl)n2)cc1OC	0.607
O=C(CSc1nc2ncccc2[nH]1)Nc1c(F)cc(F)cc1Br	10.2
O=C(Nc1nccs1)C1(S(=O)(=O)c2ccc(Cl)cc2)CC1	0.342
COc1ccc(/C=C/C(=O)CC(O)(c2ccccc2)C(F)(F)F)cc1 (centres unmarked)	0.0544
Cn1cccc1Cc1nnc(SCC(=O)Nc2ccccc2)n1-c1ccc(F)cc1	-39.7
CCOc1ccc(-c2cc(C(=O)O)c3ccccc3n2)c(OCC)c1	11.3
N/C(=N\OC(=O)COc1ccc([N+](=O)[O-])cc1)c1cccnc1	1.41
CCOC(=O)c1c(-c2ccc(OC)cc2)csc1NC(=O)CSc1ncnc2sccc12	2.51
